Data reported in the supplement of paper PMC7125110.
± gives the standard error. Variants at the floor of the assay are shown more often than the library holds them.

B1: glmS ribozyme (parent)
chain: AUAAAAGCGCCAGAACUACAGAAAUGUAGUUGACGAGGAGGAGGUUUAUCGAAUUUUCGGCGGAUGCCUCCAAA

Columns and labels:
Details in all cases: with glucosamine-6-phosphate
[1] = variants of: B1; assay: self-cleavage kobs at 640 uM GlcN6P; higher = faster cleavage; RNA array
Outline: (§1)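 kcat and KM were obtained from weighted Michaelis–Menten fits across concentrations of kobs values. Those came from one- or two-exponential decay fits to per-tile medians normalised to baseline and to non-cleaving reference variants. The variants were barcoded ribozymes transcribed in situ by E. coli RNA polymerase on sequenced MiSeq chips and tracked through a hybridised Cy3 probe at 37 °C, with 40 μM to 10 mM glucosamine-6-phosphate in HEPES/KCl/Mg(OAc)2 buffer flowed in.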

[2] = variants of: B1; assay: self-cleavage kobs at 2500 uM GlcN6P; higher = faster cleavage; RNA array
Outline: as §1

[3] = variants of: B1; assay: self-cleavage kobs at 160 uM GlcN6P; higher = faster cleavage; RNA array
Outline: as §1

[4] = variants of: B1; assay: self-cleavage kobs at 10000 uM GlcN6P; higher = faster cleavage; RNA array
Outline: as §1

Row | Variant | self-cleavage kobs at 640 uM GlcN6P [1] [s⁻¹] | self-cleavage kobs at 2500 uM GlcN6P [2] [s⁻¹] | self-cleavage kobs at 160 uM GlcN6P [3] [s⁻¹] | self-cleavage kobs at 10000 uM GlcN6P [4] [s⁻¹]
1 | G32U G41A G59C | < 1e-05 | – | – | –
2 | G32U G43C U45G U46G C70A | < 1e-05 | < 1e-05 | – | –
3 | G32U G43U G60C | < 1e-05 | – | – | –
4 | G32U G44U A53G | < 1e-05 | – | – | –
5 | G32U G60A | < 1e-05 | < 1e-05 | < 1e-05 | < 1e-05
6 | G32U G60U C70U | < 1e-05 | < 1e-05 | – | –
7 | G32U G63A C70U | < 1e-05 | – | – | –
8 | G32U U45G C70A | < 1e-05 | – | < 1e-05 | –
9 | G32U U46A G63A | < 1e-05 | – | – | –
10 | G32U U46G C61G | < 1e-05 | – | – | –
11 | G32U U47A | 8.3e-05 ± 2e-05 | 0.000375 ± 0.00014 | 5.78e-05 ± 1.8e-05 | 0.000493 ± 0.00011
12 | G32U U49A G60U C70A | < 1e-05 | – | – | –
13 | A33C A36G G44U C50A C67U | < 1e-05 | – | – | –
14 | A33C A39G G40U U46C C50U | < 1e-05 | – | – | –
15 | A33C A48C C71A | < 1e-05 | < 1e-05 | – | –
16 | A33C A48C U54G C61U G63C | < 1e-05 | – | – | –

Row | Variant | self-cleavage kobs at 640 uM GlcN6P [1] [s⁻¹] | self-cleavage kobs at 2500 uM GlcN6P [2] [s⁻¹] | self-cleavage kobs at 160 uM GlcN6P [3] [s⁻¹] | self-cleavage kobs at 10000 uM GlcN6P [4] [s⁻¹]
17 | A33C A48U U49C U55A | < 1e-05 | < 1e-05 | < 1e-05 | < 1e-05
18 | A33C A52G C67U | < 1e-05 | < 1e-05 | – | –
19 | A33C A52G U65G | < 1e-05 | < 1e-05 | – | –
20 | A33C A53U G59A U69G | 0.000208 ± 8.8e-05 | – | – | –
21 | A33C A53U U55A G62C | < 1e-05 | < 1e-05 | – | –
22 | A33C C34A A64U | < 1e-05 | < 1e-05 | – | –
23 | A33C C34A U57G | < 1e-05 | – | – | –
24 | A33C C50A G59C C68U C71U | < 1e-05 | – | – | –
25 | A33C G35A G41A | < 1e-05 | < 1e-05 | – | –
26 | A33C G35A G51C | < 1e-05 | < 1e-05 | < 1e-05 | –
27 | A33C G35A U55C | < 1e-05 | < 1e-05 | – | –
28 | A33C G35C C68G | < 1e-05 | – | – | –
29 | A33C G35U G38U G44U C58U G60U | < 1e-05 | < 1e-05 | < 1e-05 | –
30 | A33C G37A G38C G44A C50U C61U | < 1e-05 | < 1e-05 | – | –
31 | A33C G38C G51C A64C | < 1e-05 | – | – | < 1e-05
